Results as given in PubChem BioAssay AID624202 (National Center for Advancing Translational Sciences (NCATS), 2012).
The whole screen tested about 380,000 compounds, of which about 4,000 (1.1%) were called active. The shares of active, inactive and inconclusive entries below differ from those in the screen. Calls follow the shape of the dose curve; as a rule, active = well fitted activation curve with a large enough effect; inconclusive = small, poorly fitted or top-dose-only effect; inactive = no such curve, though single readings can be large or run the other way. Potencies beside an inconclusive call are fits to weak or partial responses and may not hold up.

Experiment: qHTS Assay to Identify Small Molecule Activators of BRCA1 Expression; also: nearly all actives have a fitted effect of over 80% in size
Conditions: MCF7-BRCA1-FFLuc reporter, luminescence, 48 h; activation: at 46.1 µM (top of the series), scaled: vehicle 0%, 10 µM genistein 100% unless noted
Procedure, shortened: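 MCF7 cells carrying a BRCA1-firefly luciferase reporter (2000 cells/well, phenol-red free MEM) were attached for 2 h at 37 °C, then given compounds for 48 h. Luminescence was read 15 min after luciferase reagent; activity normalized to genistein (10 microM) and DMSO.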
Potency is read from the fitted curve at half-maximal effect; tags tell the direction and shape of the fitted curve.

| Compound | activation | Potency |
| --- | --- | --- |
| CC(C)Cn1cc(NC(=O)NCc2ccccc2Cl)c2ccccc2c1=O | inactive: -8.09% |  |
| CC(/C=N/NC(=O)c1ccccc1C)=C\c1ccccc1 |  | inconclusive: 7.08 µM [activator, partial curve, poor fit] |
| COc1ccc(CCNC(=O)C2CCC(C(C)(C)C)CC2)cc1OC (stereo not given) | inactive: -2.55% |  |
| COC(=O)CCN(C(=O)C12CC3CC(CC(C3)C1)C2)c1ccccn1 | inactive: -2.93% |  |
| CCOC(=O)c1c(Cc2ccccc2)c[nH]c1C |  | inconclusive: 15.8 µM [activator, partial curve, poor fit] |
| C[C@@]12C(=O)Nc3ccc(F)cc3C(=O)N1[C@H]1c3cc(Br)ccc3OC[C@@H]1[C@@H]2c1ccccc1 | inactive: -53.5% |  |
| CC(C)(C)c1ccc(NC(=O)Nc2ccc(F)cc2)cc1 |  | inconclusive: 1.58 µM [activator, full curve, poor fit] |
| Cc1csc(NC(=O)C2COc3ccccc3O2)n1 (stereo not given) |  | inconclusive: 2 µM [activator, full curve, poor fit] |
| Cc1cccc(-c2nc(C(N)=O)c3c(n2)n(-c2ccc4c(c2)OCO4)c(=O)n3C)c1 | inactive: 0% |  |
| COc1ccc2nc(SCc3ccccc3)nc(C)c2c1 |  | inconclusive: 1.26 µM [activator, partial curve, poor fit] |
| CCOC(=O)c1ccc2c(c1)N(Cc1ccccc1C)C(=O)c1ccccc1S2=O (stereo not given) | inactive: -15.9% |  |
| Cc1c(NC(=O)c2ccc(Br)o2)cccc1C(=O)O |  | active: 3.55 µM |
| Cc1ccnc(SCC(=O)c2cccs2)n1 |  | active: 2.51 µM |
| O=C1CC(N(CCc2ccccc2)C(=S)Nc2cc(Cl)ccc2Cl)C(=O)N1c1c(Cl)cccc1Cl (stereo not given) | inactive: -53.4% |  |
| Clc1ccc(Br)cc1-c1nc(-c2ccncc2)no1 | inactive: -31.9% |  |
| CC(C)c1ccc(OCc2cccc(C(=O)N/N=C/c3cccnc3)c2)cc1 | inconclusive: -46.4% [activator] |  |
| O=C(NC1CCCCC1)c1ccc2ccccc2c1O |  | inconclusive: 7.08 µM [activator, full curve, poor fit] |
| CC(=O)N1C(=O)NC2=C(C(=O)CCC2)C1c1cccc([N+](=O)[O-])c1 (stereo not given) | inactive: -18.2% |  |
| CC(C)C(C(=O)O)N1C(=O)/C(=C/C=C/c2ccco2)SC1=S (stereo not given) | inactive: -2.35% |  |
| Cc1ccc(OC(=O)c2sc3ncn(C)c(=O)c3c2C)cc1 |  | inconclusive: 10 µM [activator, partial curve, poor fit] |
| COc1cccc(NC(=S)NN=C2CCCCCC2)c1 |  | inconclusive: 20 µM [activator, single point] |
| O=C(NCCc1ccc(Cl)cc1)c1ccc2c(c1)OCCO2 | inconclusive: 69.4% [activator] |  |
| CCOC(=O)c1cc(C(=O)Nc2cccc(C)c2)nn1C |  | inconclusive: 1.58 µM [activator, partial curve, poor fit] |
| COc1ccc(-c2cn[nH]c2-c2ccc(OC)cc2O)cc1 | inactive: -18.9% |  |
| COc1ccc2nc(-c3ccccn3)[nH]c2c1 |  | inconclusive: 2.51 µM [activator, partial curve, poor fit] |

| Compound | activation | Potency |
| --- | --- | --- |
| O=[N+]([O-])c1ccc(NCc2ccc3c(c2)OCO3)cc1 |  | inconclusive: 14.1 µM [activator, partial curve, poor fit] |
| O=C(N/N=C/c1ccc(N2CCOCC2)cc1)c1ccncc1 | inactive: -24.9% |  |
| CC1(C)CC(=O)C(N=Nc2ccc(F)cc2)=C(O)C1 |  | inconclusive: 31.6 µM [activator, single point] |
| CC1(C)CC(=O)C(C(N)=NC(=O)c2ccccc2)=C(O)C1 |  | inconclusive: 22.4 µM [activator, single point] |
| COc1ccccc1CCC(=O)Nc1ccc(C)cc1Cl |  | inconclusive: 12.6 µM [activator, partial curve, poor fit] |
| CC(=O)Nc1cccc(-c2nnc(-c3ccccc3)o2)c1 |  | active: 6.31 µM |
| Cc1cc(C)nc(Nc2n[nH]c(-c3ccc(N)cc3)n2)n1 |  | inconclusive: 1.26 µM [activator, partial curve, poor fit] |
| O=C1N(c2ccccc2)CCN1c1ccccc1 |  | inconclusive: 1.12 µM [activator, full curve, poor fit] |
| COc1ccc(C2=NS(=O)(=O)N(C)C(C(=O)Nc3ccc4c(c3)OCO4)=C2)cc1OC | inactive: -29.9% |  |
| CC(=O)c1ccc(N2CCN(c3ncccn3)CC2)c([N+](=O)[O-])c1 | inactive: 51.7% |  |
| Cc1cc(-c2nnc(SCc3ccccn3)o2)no1 |  | inconclusive: 35.5 µM [activator, single point] |
| Cc1ccccc1Nc1nc2ccccc2s1 |  | active: 3.55 µM |
| CC(C)CSc1nsc(N)n1 |  | active: 12.6 µM |
| Cc1cc(N)n2ncc(-c3ccc(F)cc3)c2n1 |  | inconclusive: 2.51 µM [activator, full curve, poor fit] |
| CCOC(=O)C(C)Sc1ncnc2c1nnn2-c1ccc(F)cc1 (stereo not given) | inactive: 105% |  |
| O=[N+]([O-])c1cccc(/C=N/N2CCN(Cc3ccccc3)CC2)c1 |  | active: 12.6 µM |
| COc1cccc(NC(=O)CNC(=O)c2cccs2)c1 |  | inconclusive: 12.6 µM [activator, partial curve, poor fit] |
| Cc1cccc(-c2cc(N)n(-c3ccccc3)n2)c1 |  | inconclusive: 2.82 µM [activator, partial curve, poor fit] |
| Cc1nc(NC(=S)Nc2ccccc2)sc1C |  | inconclusive: 11.2 µM [activator, partial curve, poor fit] |
| N#Cc1ccc(C2N=C(c3ccccc3)NO2)cc1 (stereo not given) |  | active: 2.51 µM |
| COc1ccc(N(C(=O)c2cccnc2)S(=O)(=O)c2cccc([N+](=O)[O-])c2)cc1 | inactive: -44.5% |  |
| Cc1ccc(Cn2c(S(=O)(=O)O)nc3ccccc32)cc1 | inactive: -14.5% |  |
| COc1ccc(OC)c(NC(=O)C2CCN(Cc3cnn(-c4ccccc4)c3-n3cccc3)CC2)c1 | inactive: -69.4% |  |
| O=C(NC1CC1)c1ccc(-c2ccccc2)cc1 |  | inconclusive: 12.6 µM [activator, partial curve, poor fit] |
| O=C(Cc1ccccc1)NCCSC1CCCCC1 |  | inconclusive: 35.5 µM [activator, single point] |
